In patent EP4491631A1 (Anaveon AG, dated 2025):

Target: T1, IL-2R on murine splenocytes (mouse, UniProt P16297 27-539; P34902 23-369)
T1 sequence (looked up) 1: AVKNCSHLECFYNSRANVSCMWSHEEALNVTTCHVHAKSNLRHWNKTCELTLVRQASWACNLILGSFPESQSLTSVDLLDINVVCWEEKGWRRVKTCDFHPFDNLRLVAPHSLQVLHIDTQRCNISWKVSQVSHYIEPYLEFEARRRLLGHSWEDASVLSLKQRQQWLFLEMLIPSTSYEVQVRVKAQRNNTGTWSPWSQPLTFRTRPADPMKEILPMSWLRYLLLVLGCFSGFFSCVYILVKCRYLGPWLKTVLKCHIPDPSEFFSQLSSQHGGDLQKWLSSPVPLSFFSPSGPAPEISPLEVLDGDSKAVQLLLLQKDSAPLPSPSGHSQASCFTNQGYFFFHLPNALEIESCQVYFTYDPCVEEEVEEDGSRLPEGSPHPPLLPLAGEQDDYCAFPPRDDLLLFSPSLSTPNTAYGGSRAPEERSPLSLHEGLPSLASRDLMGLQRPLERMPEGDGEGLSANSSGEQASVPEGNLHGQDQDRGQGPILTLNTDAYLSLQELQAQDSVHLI
T1 sequence (looked up) 2: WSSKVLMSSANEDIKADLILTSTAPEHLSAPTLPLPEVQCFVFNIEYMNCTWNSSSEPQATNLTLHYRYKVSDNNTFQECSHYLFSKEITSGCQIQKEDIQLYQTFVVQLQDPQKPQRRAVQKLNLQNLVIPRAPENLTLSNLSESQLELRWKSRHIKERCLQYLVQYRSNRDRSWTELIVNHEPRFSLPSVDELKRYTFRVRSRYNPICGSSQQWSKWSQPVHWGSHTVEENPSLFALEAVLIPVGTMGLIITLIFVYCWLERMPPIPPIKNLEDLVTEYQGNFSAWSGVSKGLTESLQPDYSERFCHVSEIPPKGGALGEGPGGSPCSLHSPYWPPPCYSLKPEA
Experiment: cell-based or functional assay

| Binder | EC50 CD8 cells (pSTAT5) [nM] | EC50 NK cells (pSTAT5) [nM] | EC50 Treg cells (pSTAT5) [nM] |
| --- | --- | --- | --- |
| LPT269 (other) heavy: EVQLVQSGAEVKKPGESLKISCKGSGYSFTNFYIHWVRQAPGQRLEWMGSIYPNYGDTAYNQKFKDRFVFSLDTSVSTAYLQISSLKAEDTAVYYCARGYSYAMDYWGQGTTVTVSSASTKGPSVFPLAPSSKSTSGGTAALGCLVKDYFPEPVTVSWNSGALTSGVHTFPAVLQSSGLYSLSSVVTVPSSSLGTQTYICNVNHKPSNTKVDKRV[gap - human IgG1 Fc with changes] light: DIQMTQSPSSVSASVGDRVTITCSASQGISGNFHLRPRDLISNINVIVLELKGSETTFMCEYADETATIVEFLNRWITFSQSIISTLTPTSSSTKKTQLQLEHLLLDLQMILNGINNYKNPKLTRMLTFKFYMPKKATELKHLQCLEEELKPLEEVLNLAQSKGDLNWYQQKPGKAPKLLIYHTSSLHSGVPSRFSGSGSGTDFTLTISSLQPEDFATYYCQYYSKDLLTFGGGTKLEIKRTVAAPSVFIFPPSDEQLKSGTASVVCLLNNFYPREAKVQWKVDNALQSGNSQESVTEQDSKDSTYSLSSTLTLSKADYEKHKVYACEVTHQGLSSPVTKSFNRGEC | 32 | 1.7 | < 0.016 |
| DXM339 (other) heavy: EVQLVQSGAEVKKPGESLKISCKGSGYSFTNFYIHWVRQAPGQRLEWMGSIYPNYGDTAYNQKFKDRFVFSLDTSVSTAYLQISSLKAEDTAVYYCARGYSYAMDYWGQGTTVTVSSASTKGPSVFPLAPSSKSTSGGTAALGCLVKDYFPEPVTVSWNSGALTSGVHTFPAVLQSSGLYSLSSVVTVPSSSLGTQTYICNVNHKPSNTKVDKRV[gap - human IgG1 Fc with changes] light: DIQMTQSPSSVSASVGDRVTITCSASQGISGGGNFHLRPRDLISNINVIVLELKGSETTFMCEYADETATIVEFLNRWITFSQSIISTLTPTSSSTKKTQLQLEHLLLDLQMILNGINNYKNPKLTRMLTFKFYMPKKATELKHLQCLEEELKPLEEVLNLAQSKGGGDLNWYQQKPGKAPKLLIYHTSSLHSGVPSRFSGSGSGTDFTLTISSLQPEDFATYYCQYYSKDLLTFGGGTKLEIKRTVAAPSVFIFPPSDEQLKSGTASVVCLLNNFYPREAKVQWKVDNALQSGNSQESVTEQDSKDSTYSLSSTLTLSKADYEKHKVYACEVTHQGLSSPVTKSFNRGEC | 18.6 | 1.3 | < 0.016 |
| FUE433 (other) heavy: EVQLVQSGAEVKKPGESLKISCKGSGYSFTNFYIHWVRQAPGQRLEWMGSIYPNYGDTAYNQKFKDRFVFSLDTSVSTAYLQISSLKAEDTAVYYCARGYSYAMDYWGQGTTVTVSSASTKGPSVFPLAPSSKSTSGGTAALGCLVKDYFPEPVTVSWNSGALTSGVHTFPAVLQSSGLYSLSSVVTVPSSSLGTQTYICNVNHKPSNTKVDKRV[gap - human IgG1 Fc with changes] light: DIQMTQSPSSVSASVGDRVTITCSASQGISGGGGNFHLRPRDLISNINVIVLELKGSETTFMCEYADETATIVEFLNRWITFSQSIISTLTPTSSSTKKTQLQLEHLLLDLQMILNGINNYKNPKLTRMLTFKFYMPKKATELKHLQCLEEELKPLEEVLNLAQSKGGGGDLNWYQQKPGKAPKLLIYHTSSLHSGVPSRFSGSGSGTDFTLTISSLQPEDFATYYCQYYSKDLLTFGGGTKLEIKRTVAAPSVFIFPPSDEQLKSGTASVVCLLNNFYPREAKVQWKVDNALQSGNSQESVTEQDSKDSTYSLSSTLTLSKADYEKHKVYACEVTHQGLSSPVTKSFNRGEC | 15.7 | 1.2 | < 0.016 |
| LQM346 (other) heavy: EVQLVQSGAEVKKPGESLKISCKGSGYSFTNFYIHWVRQAPGQRLEWMGSIYPNYGDTAYNQKFKDRFVFSLDTSVSTAYLQISSLKAEDTAVYYCARGYSYAMDYWGQGTTVTVSSASTKGPSVFPLAPSSKSTSGGTAALGCLVKDYFPEPVTVSWNSGALTSGVHTFPAVLQSSGLYSLSSVVTVPSSSLGTQTYICNVNHKPSNTKVDKRV[gap - human IgG1 Fc with changes] light: DIQMTQSPSSVSASVGDRVTITCSASQGISGGGGGSGNFHLRPRDLISNINVIVLELKGSETTFMCEYADETATIVEFLNRWITFSQSIISTLTPTSSSTKKTQLQLEHLLLDLQMILNGINNYKNPKLTRMLTFKFYMPKKATELKHLQCLEEELKPLEEVLNLAQSKGGGGSGGDLNWYQQKPGKAPKLLIYHTSSLHSGVPSRFSGSGSGTDFTLTISSLQPEDFATYYCQYYSKDLLTFGGGTKLEIKRTVAAPSVFIFPPSDEQLKSGTASVVCLLNNFYPREAKVQWKVDNALQSGNSQESVTEQDSKDSTYSLSSTLTLSKADYEKHKVYACEVTHQGLSSPVTKSFNRGEC | 25.4 | 1.8 | < 0.016 |
| GLK754 (other) heavy: EVQLVQSGAEVKKPGESLKISCKGSGYSFTNFYIHWVRQAPGQRLEWMGSIYPNYGDTAYNQKFKDRFVFSLDTSVSTAYLQISSLKAEDTAVYYCARGYSYAMDYWGQGTTVTVSSASTKGPSVFPLAPSSKSTSGGTAALGCLVKDYFPEPVTVSWNSGALTSGVHTFPAVLQSSGLYSLSSVVTVPSSSLGTQTYICNVNHKPSNTKVDKRV[gap - human IgG1 Fc with changes] light: DIQMTQSPSSVSASVGDRVTITCSASQGISGGGGGSGGGGSGGGNFHLRPRDLISNINVIVLELKGSETTFMCEYADETATIVEFLNRWITFSQSIISTLTPTSSSTKKTQLQLEHLLLDLQMILNGINNYKNPKLTRMLTFKFYMPKKATELKHLQCLEEELKPLEEVLNLAQSKGGGGSGGGGSGGGGDLNWYQQKPGKAPKLLIYHTSSLHSGVPSRFSGSGSGTDFTLTISSLQPEDFATYYCQYYSKDLLTFGGGTKLEIKRTVAAPSVFIFPPSDEQLKSGTASVVCLLNNFYPREAKVQWKVDNALQSGNSQESVTEQDSKDSTYSLSSTLTLSKADYEKHKVYACEVTHQGLSSPVTKSFNRGEC | 70.5 | 2.5 | < 0.016 |
| VBE401 (other) heavy: EVQLVQSGAEVKKPGESLKISCKGSGYAFTNYLIEWVRQMPGKGLEWMGVINPGSGGTNYNEKFKGQVTISADKSISTAYLQWSSLKASDTAMYYCARWRGEGGGFHLRPRDLISNINVIVLELKGSETTFMCEYADETATIVEFLNRWITFSQSIISTLTPTSSSTKKTQLQLEHLLLDLQMILNGINNYKNPKLTRMLTFKFYMPKKATELKHLQCLEEELKPLEEVLNLAQSKGGGGYYAYFDVWGQGTTVTVSSASTKGPSVFPLAPSSKSTSGGTAALGCLVKDYFPEPVTVSWNSGALTSGVHTFPAVLQSSGLYSLSSVVTVPSSSLGTQTYICNVNHKPSNTKVDKRV[gap - human IgG1 Fc with changes] light: AIRLTQSPSSFSASTGDRVTITCKASQSVDYQGDSYMNWYQQKPGKAPKLLIYAASNLESGVPSRFSGSGSGTDFTLTISSLQSEDFATYYCQQSNEDPYTFGGGTKVEIKRTVAAPSVFIFPPSDEQLKSGTASVVCLLNNFYPREAKVQWKVDNALQSGNSQESVTEQDSKDSTYSLSSTLTLSKADYEKHKVYACEVTHQGLSSPVTKSFNRGEC | 32.2 | 34.3 | 2.6 |
| LIZ707 (other) heavy: EVQLVQSGAEVKKPGESLKISCKGSGYAFTNYLIEWVRQMPGKGLEWMGVINPGGGFYMPKKATELKHLQCLEEELKPLEEVLNLAQSKNFHLRPRDLISNINVIVLELKGSETTFMCEYADETATIVEFLNRWITFCQSIISTLTPTSSSTKKTQLQLEHLLLDLQMILNGINNYKNPKLTRMLTFKGGGSGGTNYNEKFKGQVTISADKSISTAYLQWSSLKASDTAMYYCARWRGEGYYAYFDVWGQGTTVTVSSASTKGPSVFPLAPSSKSTSGGTAALGCLVKDYFPEPVTVSWNSGALTSGVHTFPAVLQSSGLYSLSSVVTVPSSSLGTQTYICNVNHKPSNTKVDKRV[gap - human IgG1 Fc with changes] light: AIRLTQSPSSFSASTGDRVTITCKASQSVDYQGDSYMNWYQQKPGKAPKLLIYAASNLESGVPSRFSGSGSGTDFTLTISSLQSEDFATYYCQQSNEDPYTFGGGTKVEIKRTVAAPSVFIFPPSDEQLKSGTASVVCLLNNFYPREAKVQWKVDNALQSGNSQESVTEQDSKDSTYSLSSTLTLSKADYEKHKVYACEVTHQGLSSPVTKSFNRGEC | 12.5 | 5.3 | 3.8 |
